Experimental data: PubChem BioAssay AID1347165 (National Center for Advancing Translational Sciences (NCATS), 2019)
Screen size: about 220,000 compounds; about 5,700 (2.6%) were called active. Inconclusive results, whose numbers are uncertain, are shown with a selection of clear calls. Calls follow the shape of the dose curve; as a rule, active = well fitted inhibition curve with a large enough effect; inconclusive = small, poorly fitted or top-dose-only effect; inactive = no such curve, though single readings can be large or run the other way. Potencies of inconclusive entries are doubtful fits and often do not repeat.

Each molecule was assayed against Lysine-specific demethylase 5B (Homo sapiens) (UniProt Q9UGL1) (assay: Primary screen for KDM5B Histone Demethylases FDH-coupled qHTS). Conditions: FDH-coupled NADH fluorescence (FDH is formaldehyde dehydrogenase); activity change, negative = inhibition: at 57.7 µM (top of the series) unless noted.
In short: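 Measured: NADH fluorescence change, 30 min, RT. System: KDM5BΔAP 200 nM final, H3K4me3 peptide, α-KG, Fe(II), ascorbate, NAD⁺ plus FDH, pH 7.5 HEPES. Compounds: titrated, 10 min pre-incubation with enzyme.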
Also: nearly all actives have a fitted effect of over 70% in size.
For activity change, negative = inhibition in this document: 0% is about no effect.
Potency is read from the fitted curve at half-maximal effect; tags tell the direction and shape of the fitted curve.

Sequence of UniProt Q9UGL1 (Q9UGL1 whole entry, looked up): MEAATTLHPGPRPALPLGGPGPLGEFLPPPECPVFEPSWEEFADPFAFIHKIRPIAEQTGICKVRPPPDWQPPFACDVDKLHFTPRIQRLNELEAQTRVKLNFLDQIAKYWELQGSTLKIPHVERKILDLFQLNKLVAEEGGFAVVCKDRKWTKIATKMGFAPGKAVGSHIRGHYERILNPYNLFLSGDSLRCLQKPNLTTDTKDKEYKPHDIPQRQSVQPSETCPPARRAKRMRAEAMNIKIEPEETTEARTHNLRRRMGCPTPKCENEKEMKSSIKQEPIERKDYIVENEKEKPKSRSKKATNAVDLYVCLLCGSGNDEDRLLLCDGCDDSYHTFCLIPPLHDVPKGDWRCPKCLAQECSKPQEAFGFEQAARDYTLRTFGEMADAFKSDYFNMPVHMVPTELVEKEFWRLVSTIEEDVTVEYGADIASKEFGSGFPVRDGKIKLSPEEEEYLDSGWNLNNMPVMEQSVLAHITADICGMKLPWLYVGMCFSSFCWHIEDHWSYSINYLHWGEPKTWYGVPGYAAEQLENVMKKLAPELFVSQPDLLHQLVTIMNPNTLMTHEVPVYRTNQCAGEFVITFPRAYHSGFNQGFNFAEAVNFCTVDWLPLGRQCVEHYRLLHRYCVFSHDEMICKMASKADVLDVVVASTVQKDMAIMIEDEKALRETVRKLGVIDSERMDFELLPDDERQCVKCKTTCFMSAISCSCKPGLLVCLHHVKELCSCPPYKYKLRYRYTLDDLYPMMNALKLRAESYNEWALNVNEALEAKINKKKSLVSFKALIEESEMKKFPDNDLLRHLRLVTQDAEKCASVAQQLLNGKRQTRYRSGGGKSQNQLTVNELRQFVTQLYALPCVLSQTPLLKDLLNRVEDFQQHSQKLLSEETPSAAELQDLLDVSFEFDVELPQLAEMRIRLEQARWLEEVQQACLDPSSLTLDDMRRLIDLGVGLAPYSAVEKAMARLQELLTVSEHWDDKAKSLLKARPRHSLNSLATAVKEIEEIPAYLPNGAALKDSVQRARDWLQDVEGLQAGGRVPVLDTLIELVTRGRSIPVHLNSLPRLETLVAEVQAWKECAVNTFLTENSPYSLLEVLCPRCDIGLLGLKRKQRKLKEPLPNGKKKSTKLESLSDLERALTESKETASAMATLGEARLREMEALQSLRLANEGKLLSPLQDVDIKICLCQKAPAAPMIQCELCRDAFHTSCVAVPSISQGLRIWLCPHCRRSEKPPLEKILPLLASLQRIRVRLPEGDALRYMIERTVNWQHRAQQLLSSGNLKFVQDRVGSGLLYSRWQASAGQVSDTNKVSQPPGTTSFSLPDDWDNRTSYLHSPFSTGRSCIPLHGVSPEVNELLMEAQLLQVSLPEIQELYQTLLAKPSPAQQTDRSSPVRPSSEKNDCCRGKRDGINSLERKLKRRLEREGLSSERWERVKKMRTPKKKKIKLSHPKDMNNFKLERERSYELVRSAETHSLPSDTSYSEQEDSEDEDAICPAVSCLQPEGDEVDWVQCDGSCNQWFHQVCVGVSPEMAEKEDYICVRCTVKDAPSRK

Row | SMILES | Potency | activity change, negative = inhibition
1 | N#Cc1nc(-c2ccc(S(=O)(=O)N3CCOCC3)cc2)oc1N1CCN(Cc2ccccc2)CC1 | inconclusive: 2.24 µM [inhibitor, full curve, poor fit] | –
2 | Cc1ccccc1OCC(=O)NC1=NCCS1 | inconclusive: 2 µM [inhibitor, full curve, poor fit] | –
3 | Cc1noc(C)c1-c1cc(-c2ccccc2Oc2ccccc2)cn2cncc12 | inconclusive: 39.8 µM [inhibitor, partial curve, poor fit] | –
4 | O=C1CC(c2nc3ccccc3n2CCC2CCCCC2)CN1c1ccccc1Cl (configuration not stated) | inconclusive: 15.8 µM [inhibitor, partial curve, poor fit] | –
5 | COC(=O)c1cc(C)nc(Sc2ccccc2NC(C)=O)n1 | – | inconclusive: -30.8% [inhibitor]
6 | Cc1ccccc1CNC(=O)COc1ccc(-c2nc(C(C)C)no2)cc1 | inactive | –
7 | COc1cc(NC(=O)COc2ccc3c(C)c(C)c(=O)oc3c2)cc(OC)c1OC | inconclusive: 15.8 µM [inhibitor, partial curve, poor fit] | –
8 | Cc1cc(F)ccc1S(=O)(=O)Nc1ccc(N2CCCC2)c(F)c1 | inactive | –
9 | COc1ccc(-c2c(NC(=O)c3ccc([N+](=O)[O-])cc3)oc3ccc(Cl)cc3c2=O)cc1OC | inactive | –
10 | O=C(O)CCNC(=O)c1cc(C2CC2)nc2ccccc12 | inconclusive: 39.8 µM [inhibitor, single point] | –
11 | O=C(c1cc(-c2ccc3c(c2)OCO3)nc2ccccc12)N1CCN(Cc2ccc3c(c2)OCO3)CC1 | inconclusive: 20 µM [inhibitor, partial curve, poor fit] | –
12 | CCOC(=O)c1cc2c(=O)n3ccccc3nc2n(CCCOC)c1=NC(=O)c1c(-c2ccccc2Cl)noc1C | inconclusive: 5.62 µM [inhibitor, partial curve, poor fit] | –
13 | COc1cc2cc(C(=O)NCC(=O)Nc3nccs3)n(C)c2c(OC)c1OC | inconclusive: 39.8 µM [inhibitor, single point] | –
14 | O=C(C1CCN(c2nc(-c3ccccc3)nc3c2CCC3)CC1)N1CCNCC1 | inconclusive: 10 µM [inhibitor, partial curve, poor fit] | –
15 | CN(C)c1cccc(C(=O)N2CCC3(CC2)N=C(c2cccc(Br)c2)NO3)c1 | active: 31.6 µM | –
16 | C[C@H](O)[C@@H]1C(=O)N2CCc3c([nH]c4c(-c5ccc6c(c5)OCO6)cccc34)[C@@H]2C[C@@H]1N(C)C(=O)c1ccccc1F | inconclusive: 28.2 µM [inhibitor, single point] | –
17 | COc1cccc(CC(=O)N2CCN(c3cc(-c4ccc(Cl)cc4)[nH]n3)CC2)c1 | inconclusive: 31.6 µM [inhibitor, single point] | –
18 | Cc1cccc(Nc2nc(C(=O)N3CCC(C)CC3)cs2)c1 | inactive | –
19 | COc1ccc(CNc2nc3c(-c4ccc(C)cc4)nnn3c3ccccc23)cc1 | inconclusive: 28.2 µM [inhibitor, single point] | –
20 | Cc1nc2cc(NS(=O)(=O)c3cc(Cl)ccc3Cl)ccc2o1 | inactive | –
21 | Cc1noc(C)c1-c1cc2c(cc(-c3ccccc3)n2C)c(N(C)C)n1 | inactive | –

Row | SMILES | Potency | activity change, negative = inhibition
22 | COc1ccccc1C(=O)NC1CCN(c2cc(-c3ccc(F)cc3)[nH]n2)C1 (configuration not stated) | inconclusive: 14.1 µM [inhibitor, partial curve] | –
23 | O=C(O)c1ccc2oc(=O)n(Cc3ccccc3)c2c1 | inactive | –
24 | Cc1ccc2c(C)nc(Nc3nc(C)cc(=O)[nH]3)nc2c1 | inactive | –
25 | COc1cc(/C=C/c2nc(C#N)c(NCc3ccco3)o2)cc(OC)c1OC | inactive | –
26 | Cc1ccc(-c2nc3nc(CN4CCCC4)cc(=O)n3[nH]2)cc1 | inactive | –
27 | Cc1ccc(NC(=O)CCNC(=O)c2ccccc2)cc1S(=O)(=O)N1CCCCC1 | inactive | –
28 | COCC1CN(C)CC12CCN(C(=O)CCc1ccc(OC)cc1)CC2 (configuration not stated) | inconclusive: 28.2 µM [inhibitor, partial curve] | –
29 | COc1ccccc1OCc1cc(C(=O)N2CCN(c3cnccn3)CC2)n[nH]1 | inconclusive: 25.1 µM [inhibitor, partial curve, poor fit] | –
30 | Cc1cc(C)c(CNC(=O)c2cc(-c3cccnc3)cc3c2OCCN3C)c(=O)[nH]1 | inconclusive: 28.2 µM [inhibitor, single point] | –
31 | COCC1CN(C)CC12CCN(S(=O)(=O)c1ccc3c(c1)CCC3)CC2 (configuration not stated) | inconclusive: 14.1 µM [inhibitor, partial curve, poor fit] | –
32 | COc1ccc(OC)c(NC(=O)c2oc3c(c2C)-c2nn(Cc4ccc(Cl)cc4)cc2CC3)c1 | inconclusive: 2.24 µM [inhibitor, full curve, poor fit] | –
33 | Cc1cn2c(=O)cc(COC(=O)c3cccc(NC(=O)COc4ccccc4)c3)nc2s1 | inconclusive: 39.8 µM [inhibitor, single point] | –
34 | OCC1(CC2CC2)CCCN(Cc2ccccc2OC(F)F)C1 (configuration not stated) | inactive | –
35 | COc1ccc2cc(S(=O)(=O)c3ccc(Cl)c(Cl)c3)c(=O)oc2c1 | inconclusive: 1.58 µM [inhibitor, partial curve, poor fit] | –
36 | COc1ccccc1C(=O)N[C@@H]1CN(Cc2ccncc2)C[C@H]1CN(C)C | active: 22.4 µM | –
37 | NC(=O)C1CCN(C(=O)c2cc(-c3ccccc3)nc3ccccc23)CC1 | inactive | –
38 | Cc1ccc(CN2C[C@@H]3C[C@H]2C(=O)N(CC2CC2)c2ccccc2O3)cc1 | inconclusive: 31.6 µM [inhibitor, single point] | –
39 | CN(C)C(CNC(=O)c1cc2ccccc2oc1=O)c1ccccc1 (configuration not stated) | inconclusive: 22.4 µM [inhibitor, single point] | –
40 | COc1ccc(-c2ccc(=O)n(CCNC(=O)Cc3ccc(Br)cc3)n2)cc1 | inconclusive: 25.1 µM [inhibitor, partial curve, poor fit] | –
41 | Cc1ccc(C#N)c(NCc2cccnc2Oc2cccc(C(F)(F)F)c2)n1 | active: 25.1 µM | –
42 | CCN(CC)C(=O)Cn1ncc2c([nH]c3ccc(C)cc32)c1=O | inconclusive: 3.16 µM [inhibitor, full curve, poor fit] | –
